Results taken from the supplement of paper PMC10126150.
Sequences with one replicate were seen in a single cluster, so their values are uncertain.

The sequences below were run on ATP (assay: switch fluorescence ratio, 500 uM ATP over buffer (Cy3 cluster intensity, sum of 5 cycles each) (fold (ratio)); higher = stronger signal-on switching upon ATP binding; sequences stand for … in TCGTCGGCAGCGTCAGATGTGTATAAGAGACAGTTTTTTTTTTTTTTTTTTTTTTTTT…TC). Conditions: aptamer strand: ATP DNA aptamer (quencher-CACCTGGGGGAGTATTGCGGAGGAAGG + anchor), 100 nM annealed; ATP concentration: 500 uM; one replicate.
Summary of the method: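 Switching-strand clusters labelled with Cy3 on a modified Illumina MiSeq flow-cell were annealed to 100 nM quencher-labelled ATP aptamer, imaged in selection buffer, and re-imaged after 15 min with 500 uM ATP at 22 °C. This was done over five cycles with NaOH stripping and re-annealing in between. The fluorescence ratio is summed target-cycle over summed buffer-cycle Cy3 intensity per cluster, averaged per switch-domain sequence, excluding clusters outside 100-1000 RFU.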
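Also: ATP exposure 15 min at 22 °C before imaging.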

Sequence	switch fluorescence ratio
GGCCCGACTC	1.05
TATCCGAAAA	1
ATCGCAAACG	1.41
AAGCGCAAGT	1.04
GATTCCGGGC	1.12
TCTTTCGGCG	0.983
ACAAACATGG	1.09
CCCAACACTT	1.14
GGAGGAGCGC	1.05
TAAATTCCTA	1.01
TCGCACGCCT	1.11
CGTGGCGGCG	0.946
TCAGGGAT	1.21
TGGGTATGCT	0.99
AAGCAGCCAT	1
AGTTATCCTA	0.975
CATGATAAGG	0.971
TGGATGTGTA	1.01
GCATTCTTGG	0.963
TCATAACCTG	1.05
CTCTGTTTTC	1.13
TCCGTATTTC	1.42
GCAGGTCGGG	0.974
GGTTGAACGT	1.02
AGGTAGATA	0.914
GACATGATGG	1.03

Sequence	switch fluorescence ratio
CTTCGTCTAC	4.67
CAGCGCGTTT	1.04
ATGCAGAAGG	0.992
CTTGTCTACA	1
TGGTAGGG	1.01
GAGCGGGGTT	1.01
CGTCATCA	1.01
AATTCTACGT	1
AACTGGGTAA	1.21
GTCAATTCAT	0.988
GTTTTTTCCT	1.04
AGCCGGGGCC	0.978
AGCGAGGCTG	0.992
CATCCCCATA	2.18
TATGTGTGAA	0.944
GCGCAAACTA	1.04
TACGATAACG	1.08
TTATCCGGC	0.96
CTGTTTTGGC	0.984
GCATGTAGGT	1
TCGGTTGACA	0.951
TTGACACGCT	1.23
ATTACCTGCT	1.01
GGTTTTATCC	1.06
GCAATTGATC	1.33
CCTAGGTTAT	1.01

Sequence	switch fluorescence ratio
TAAAGCCCGG	1.01
CGACGGTTTC	1.59
CATCCTTTGT	1.01
AGTGCACTGC	1.04
ATGTCCTAG	1
TGTGGTCTGC	0.933
ACTAGGATAC	1.2
CAGGTGCTGA	1.16
TTGCTGGCTT	1.03
AAATAGGCGC	1.07
AGGGTCTTCA	0.983
ACAGCTTAGG	1.02
TTCGTTTTCA	0.982
CCAATTCGGG	1.03
TTACACTTGC	1.12
AAGTCTGGCG	0.981
TCGCAAAAAT	1.01
GGTCATATT	1.06
GTGGTTGGAT	1
GTCTGGATGC	0.983
GAGATAGTCA	1.05
AGAGCAACTT	1.05
TTTCTTCCTT	1.05
AGTGAGCGGA	1.02
CGGTCGACTG	0.971
CAGGGCCACA	1.05

Sequence	switch fluorescence ratio
TAGATATTCG	1
CGTTAGCGCG	0.979
AATTTGCCA	1
GTTGTCTTTT	0.981
CTAGTCCAT	0.978
TGTTGGTAG	0.971
ACAGTAGCGG	1.02
AGGGTTTAGA	0.98
ACCACCTGGT	1.08
CTCGAAGTAA	1.66
CTCAGTGGCT	0.982
CCTGCGGGAT	0.937
TTATTGCGAA	1.04
CCACAACGG	1.04
GGACTTGTAT	0.982
TTGCTACAAG	1.02
CTGGCCAGGC	1.01
AGGACGCGAT	4.93
ATGGATCCAT	0.984
GGATTATTAT	1.01
CGTTATACC	1.19
GCTGGTGCTG	1.01
GTTATTCTGC	1.02
CCTCAGGAGC	1.44
ACTTAATATA	1
ATCAGATCAT	1.06

Sequence	switch fluorescence ratio
GTCACATGTT	0.964
TGGCTGCAAC	1.21
GTGGTCTTCC	1.14
GTTTACGGGA	1.04
CATTGCGCTG	1.07
GAAGCATTGT	1.11
AACAACGTCG	0.987
GCAGTTTATT	0.989
CGAATGTTAC	1.16
AGCTGCCCAT	0.942
AAATACAGTA	1.08
GGGTGGATG	0.931
TGCACGTAAA	1.27
GCGCTACTGC	1.05
AGAATGTAAC	0.965
ACCTCTATTA	1.02
CAGGTTGTCG	0.953
CGAGTTGTCC	0.995
CTCCGGCGTA	1.17
TAAAAGAATT	1.02
ACTCTGTCAG	1.25
ATGTATTTTA	1.01
TGTTCCGATC	1.09
CCCTAAACTT	1.02
GCTACTGACG	1.07
CCAAGTGTCT	0.984

Sequence	switch fluorescence ratio
TAATTGAAGG	0.969
GGTAACACCC	0.994
CGCTCGGACG	1.03
ACTAGCTAAC	1.3
TACGTTGCG	0.966
CCATGTGGGA	0.964
AGAGGTGGCA	0.986
ATAGAGGCGG	1
CATCGGCAAT	1.77
CGTCAGGTTA	1.07
GGGTCGTATA	0.993
TTACGCTGGA	1.14
TTCATGGTGC	1.21
GCAGCTTCTT	0.989
GAGTAAGAAA	0.993
CACGGGGACC	1.01
GAAGGCGAAC	1.19
GCCGGATTTT	1.02
AGCCCCAGT	1.01
AGGGCCTGCA	1
GTTTGCCCCC	1.08
GTTATGCGTC	0.923
AGTTTTCACT	0.999
CGGTAACTAA	0.979
GATCCTGCCC	1.12
TAGGGTACAA	1.04

Sequence	switch fluorescence ratio
ATCAATCTCT	0.997
TATCTCTATA	0.936
CCGCCGTCAT	1.47
TAACCTGGGC	1.13
CACTAGTATC	1.02
TGGCCCTTGC	1.07
AGATGGCGGA	0.974
GTTATAGGCG	0.977
TAAGATCCTC	0.932
TCGGGAGGAT	0.994
TATCGGCCAA	1
TTCCGTCCAA	1.04
ATCTAGACGA	1.02
TGGACTCAGT	0.955
CAGTAGACTG	0.954
ATGCTTATCC	1.01
GCTGTTACGT	1
TATGCGTTAC	2.74
CTATGAGCAG	1.13
ATCTTAGAG	1.01
ATGACGAGCT	1.17
TAACCAAGGT	1.01
TAATACTCTG	1.07
GCTGCGGAAC	1.81
CCTCCACCGG	2.63
TGTCCACACG	1.02

Sequence	switch fluorescence ratio
TGGTTGCGA	1.08
TATGGGACTA	1.01
ATTCGGTTTA	1.01
GGCGGATGCA	0.988
ACAGGGAGCG	0.961
TCGAGCTGCA	1.02
GGCTTGATGT	0.999
GGTTGTACTG	0.932
TGGTAAGAC	1.19
CTGTCCAGGA	1.01
CGAGCGGATT	1.06
CCCATATACG	1.76
TTTCTATTAA	0.955
TAGTTGTGAA	0.993
GATTAAGGTC	1.05
GAAGCTGTAA	1.2
TATAGACATC	1.04
GGCTTGTCAC	1.02
CAACGGCCTG	1.01
